# Laboratory results as given in article PMC4336329 (PLoS ONE, 2015).
# Out of some 310,000 compounds screened, about 2,200 (0.71%) showed an effect of 50% or more. The effect is printed as a negative number. Some of the results follow.
# Target: human ether-à-go-go-related gene (hERG) potassium channel (human, UniProt Q12809)
# Experiment: primary screen, population patch clamp on CHO cells stably expressing hERG
# human ether-à-go-go-related gene (hERG) potassium channel, sequence (Q12809 whole entry, looked up): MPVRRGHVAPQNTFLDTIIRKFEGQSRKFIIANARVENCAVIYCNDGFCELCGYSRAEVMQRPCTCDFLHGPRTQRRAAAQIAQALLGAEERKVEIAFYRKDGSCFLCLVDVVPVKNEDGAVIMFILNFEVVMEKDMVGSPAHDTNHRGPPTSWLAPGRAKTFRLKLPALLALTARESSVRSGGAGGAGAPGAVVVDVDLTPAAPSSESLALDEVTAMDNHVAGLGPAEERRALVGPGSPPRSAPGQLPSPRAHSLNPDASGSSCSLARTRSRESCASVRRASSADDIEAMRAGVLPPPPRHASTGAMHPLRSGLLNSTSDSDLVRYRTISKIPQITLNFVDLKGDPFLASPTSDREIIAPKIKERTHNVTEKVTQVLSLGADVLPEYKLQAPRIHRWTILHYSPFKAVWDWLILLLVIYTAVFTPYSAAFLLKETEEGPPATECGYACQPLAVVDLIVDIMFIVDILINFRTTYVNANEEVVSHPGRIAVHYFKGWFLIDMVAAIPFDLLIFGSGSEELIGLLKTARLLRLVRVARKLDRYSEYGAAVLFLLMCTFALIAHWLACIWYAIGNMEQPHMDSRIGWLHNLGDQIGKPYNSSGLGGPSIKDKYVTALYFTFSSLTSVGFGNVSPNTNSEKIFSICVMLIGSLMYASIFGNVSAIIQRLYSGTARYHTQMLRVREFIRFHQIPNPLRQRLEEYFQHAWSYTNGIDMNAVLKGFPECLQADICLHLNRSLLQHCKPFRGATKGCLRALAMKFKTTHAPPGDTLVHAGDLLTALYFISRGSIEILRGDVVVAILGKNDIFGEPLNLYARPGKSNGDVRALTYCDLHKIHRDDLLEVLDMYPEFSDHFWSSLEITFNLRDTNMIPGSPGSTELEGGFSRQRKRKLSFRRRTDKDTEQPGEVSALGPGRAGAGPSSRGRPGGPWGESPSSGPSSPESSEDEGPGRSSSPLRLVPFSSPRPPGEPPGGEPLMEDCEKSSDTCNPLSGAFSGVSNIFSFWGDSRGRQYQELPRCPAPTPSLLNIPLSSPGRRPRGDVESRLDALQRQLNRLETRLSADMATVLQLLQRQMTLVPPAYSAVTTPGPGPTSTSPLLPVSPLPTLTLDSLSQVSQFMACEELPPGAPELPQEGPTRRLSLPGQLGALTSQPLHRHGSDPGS
row,Structure (SMILES),"hERG current change (%, negative = inhibition) at 1uM"
1,COC(=O)CSc1nc(-c2ccccc2)c2c(c1C#N)CCCC2,5.6%
2,COC(=O)C1=C(c2ccc(S(C)(=O)=O)cc2)C[C@@H]2CC[C@H]1N2C(=O)NCc1ccc(C(F)(F)F)cc1,-10.8%
3,COc1ccc(O)c(-c2cn[nH]c2-c2cccs2)c1,13.8%
4,CN(C(=O)COC(=O)CSc1ccc([N+](=O)[O-])cc1)c1ccccc1,-0.194%
5,COc1ccc(N2CCN(Cc3nc4c(c(=O)n(C)c(=O)n4C)n3CCc3ccccc3)CC2)cc1,15.4%
6,CCOC(=O)c1cnc2ccc(OC)cc2c1NCc1ccccc1,-33.4%
7,Cn1nc(OC(=O)Nc2ccc(Cl)cc2)cc1C(F)(F)F,4.33%
8,Cc1cccc(N2CCN(CCc3ccccc3)CC2)c1C,-43.7%
9,CC(CCc1ccccc1)NCc1ccncc1 (centres unmarked),-0.312%
10,COc1cccc(C2=NOC(C(=O)NCc3ccco3)C2)c1 (centres unmarked),3.64%
11,CCN(CC)S(=O)(=O)c1ccc(=O)[nH]c1,15%
12,N#Cc1c(-c2ccc(F)cc2)nc(-c2ccccc2)[nH]c1=O,15.1%
13,Cc1ccccc1OCC(=O)N(Cc1ccco1)c1c(N)n(Cc2ccccc2)c(=O)[nH]c1=O,6.59%
14,CCC(C(=O)Nc1nccs1)(C(F)(F)F)C(F)(F)F,4.35%
15,Cc1cc(NC(=O)CSc2nnnn2-c2ccccc2C)no1,10.7%
16,CCC1CN(C(=O)N2CCC(C(=O)NCc3ccccc3OC)CC2)c2ccccc2O1 (centres unmarked),15.9%
17,O=C(O)CN1C(=O)CSc2ccccc21,-4.46%
18,CC(=O)OC[C@H]1O[C@@H](O/N=C/C[C@@H]2C=C[C@H](OC(C)=O)[C@@H](COC(C)=O)O2)[C@H](OC(C)=O)[C@@H](OC(C)=O)[C@@H]1OC(C)=O,4.34%
19,CC(=O)c1ccc(OCc2cc(C(=O)N(C)Cc3cc(C)no3)no2)cc1,11.8%
20,CC(C)Nc1ncnc2c1cnn2-c1ccc(Cl)cc1,16.6%
21,CC1CCCC(C)N1C(=S)SCC(=O)O (centres unmarked),1.1%
22,Cc1ccc(S(=O)(=O)NCC(c2cccnc2)N2CCOCC2)cc1 (centres unmarked),13%
23,COc1ccc(S(=O)(=O)Cc2ccc(C(=O)NCCCN3CCc4ccccc4C3)o2)cc1,-23%

row,Structure (SMILES),"hERG current change (%, negative = inhibition) at 1uM"
1,CCOc1ccc(-c2nnc(-c3snc(-c4ccc(F)cc4)c3N=CN(C)C)o2)cc1,15.1%
2,O=C1CC(=O)Nc2cc(S(=O)(=O)N3CCN(c4ccc([N+](=O)[O-])cc4)CC3)ccc2N1,-13.6%
3,O=C(Cn1c(O)c(/C=C2\C=Nc3ccccc32)sc1=O)N1CCOCC1,12.6%
4,O=C(c1cccc(S(=O)(=O)N2CCOCC2)c1)N1CCCCCC1,0.148%
5,CCOc1ccc(CNC(=O)CS(=O)(=O)Cc2nc(-c3ccc(OC)cc3)oc2C)cc1,16.6%
6,CC(NS(=O)(=O)c1ccccc1)C(=O)NCc1ccco1 (centres unmarked),8.63%
7,COc1ccc(Cl)cc1C(=O)Nc1ccc2c(c1)OCCO2,12.6%
8,O=C(CNC(=O)c1ccco1)Nc1cccc(Cl)c1,8.11%
9,COC(=O)c1ccc(C(=O)Nc2ccc3nc(-c4cccnc4)[nH]c3c2)cc1,17%
10,CCn1c(/C=C/c2cccc([N+](=O)[O-])c2)nc2ccccc2c1=O,15.8%
11,Cc1ccc(Cl)c2sc(NC(=O)C3CC3)nc12,12.4%
12,CC(=O)NCCc1nc2cc(NC(=O)c3ccc(F)cc3)ccc2n1C,9.46%
13,COc1ccc(-n2nc(C(=O)NCC3CCCO3)c3ccccc3c2=O)cc1 (centres unmarked),35.4%
14,N#Cc1nc(-c2ccco2)oc1N1CCOCC1,10.1%
15,CC1CCCCC1NC(=O)COC(=O)c1ccc2ccccc2n1 (centres unmarked),3.71%
16,COc1ccc(CNC(=O)c2nccnc2CO)cc1,14.9%
17,COc1ccc(CNC(=O)N2CCc3ccccc3C2)cc1,22.5%
18,CC1(C)Cc2[nH]c(=S)c(C#N)cc2CO1,15.8%
19,Cc1ccc(C)c(C(=O)CSc2nc(N)cc(=O)[nH]2)c1,6%
20,CCn1c(CNC(=O)c2cccc(C)c2)nnc1SCC(=O)NC1=NCCS1,15.3%
21,Cc1c(NC(=O)c2cc(-c3cccc(Cl)c3)on2)c(=O)n(-c2ccccc2)n1C,0.359%
22,O=C(COC(=O)c1cc([N+](=O)[O-])ccc1NCCO)c1ccc(Cl)cc1,12.1%
23,Cc1n[nH]c(=O)nc1Nc1ccc(O)cc1,-15.3%

row,Structure (SMILES),"hERG current change (%, negative = inhibition) at 1uM"
1,CCOC(=O)CSc1nnc(CCCCCN2C(=O)c3cccc4cccc(c34)C2=O)o1,-2.51%
2,Cc1ccc(C(=O)NCCCN2CCOCC2)c(C)c1,18.8%
3,COc1ccc(OC)c2sc(N3CCc4ccccc4C3)nc12,6.61%
4,O=C(NCc1c[nH]c2ccccc12)c1ccccc1,11%
5,CC(C)OP(=O)(OC(C)C)C(Nc1ccccc1)c1ccccc1C(F)(F)F (centres unmarked),4.33%
6,CC(CC(C)C(=O)N1CCOCCN(C(=O)C(C)CC(C)C(=O)O)CCOCC1)C(=O)O (centres unmarked),7.17%
7,CCN(C(=O)CN1C(=O)/C(=C/c2ccc(F)cc2)SC1=S)C1CCS(=O)(=O)C1 (centres unmarked),8.43%
8,Cc1cc(F)ccc1N1CCC(N2CCN(C)C(CCO)C2)CC1 (centres unmarked),16.7%
9,O=C(c1cccc(N2C(=O)C3C4C=CC(C4)C3C2=O)c1)N1CCN(c2ccccc2)CC1 (centres unmarked),7.71%
10,COc1ccc(OC)c(C2C3=C(N=c4s/c(=C\c5cccc(O)c5)c(=O)n42)c2ccccc2CC3)c1 (centres unmarked),2.76%
11,CCOC(=O)c1nnn(-c2nonc2N)c1CN1CCCC1,13.8%
12,Cc1ccccc1Nc1nc(=O)c2cc([N+](=O)[O-])ccc2s1,2.19%
13,CC12CCC(C(=O)NCc3ccc4c(c3)OCO4)(OC1=O)C2(C)C (centres unmarked),13.2%
14,O=C(NNc1c2ccccc2nc2ccccc12)c1cc2ccccc2cc1O,20.9%
15,CCC(NC(=O)c1cc(COc2ccc(OC)cc2Cl)on1)c1ccncc1 (centres unmarked),1.89%
16,O=C(Cn1cc(C(=O)c2ccccc2F)c2ccccc21)NC1CC1,-10.6%
17,C/C(=N\NC(=S)NCCc1ccccc1)c1ccc(C#N)cc1,4.49%
18,CC(C)[C@H](N)C(=O)OCCOCn1cnc2c(=O)[nH]c(N)nc21,16.3%
19,CN(CC(=O)Nc1ccccc1Br)C(=O)c1ccncc1,9.54%
20,Cc1nn(Cc2ccc(Cl)c(Cl)c2)c(C)c1NC(=O)c1cc(CC(C)C)on1,4.05%
21,COC(=O)C1=CN(Cc2cccs2)C=C(C(=O)OC)C1c1cccc(O)c1,-9.82%
22,COc1ccc(Oc2cn[nH]c2-c2ccc(OCC(=O)NN)cc2O)cc1,2.58%
23,CCCN1C(=O)/C(=C2\SC(N3CCCCC3)=NC2=O)c2ccccc21,19.5%

row,Structure (SMILES),"hERG current change (%, negative = inhibition) at 1uM"
1,Cc1cc(F)ccc1S(=O)(=O)N1CCCOC1CNC(=O)C(=O)NCc1ccco1 (centres unmarked),19.4%
2,CCSc1nnc(NC(=O)c2cc(C)oc2C)s1,13.9%
3,C=CCN1C(=O)NC(=O)C(Cc2ccc(OC)c(OC)c2)C1=O (centres unmarked),12.2%
4,OCCNc1nc2ccc(Cl)cc2[nH]1,1.16%
5,O=C(CN1C(=O)NC(Cc2ccccc2)C1=O)Nc1ccc(F)cc1 (centres unmarked),11.3%
6,O=C(CCSc1nc(-c2ccco2)cc(C(F)(F)F)n1)NCC1CCCO1 (centres unmarked),5.73%
7,Nc1nn(S(=O)(=O)c2ccccc2)cc1-c1ccc([N+](=O)[O-])cc1,-1.13%
8,Cc1cccc(-n2c(O)c(C=NCc3cccnc3)c(=O)[nH]c2=O)c1C,12.4%
9,COc1ccc(C(C)=O)cc1COC(=O)Cc1cc(OC)c(OC)c(OC)c1,8.45%
10,COc1ccc(CCNC(=O)CO/N=C/c2cc3c(cc2Br)OCO3)cc1OC,14.5%
11,O=C(CSc1ncn(-c2ccccc2)n1)c1cccs1,8.29%
12,COc1ccc(C(C)=O)cc1CC(C(=O)c1ccc(F)cc1)N(C)C (centres unmarked),3.39%
13,Cc1ccc(CS(=O)(=O)CCC(=O)NCC2CCCO2)cc1 (centres unmarked),-13.3%
14,COc1ccc(-c2nc(CS(=O)CC(=O)N3CCN(C)CC3)c(C)o2)cc1 (centres unmarked),13.5%
15,O=C(Cn1ccc([N+](=O)[O-])n1)N1CCc2ccccc21,7.98%
16,Cc1ccccc1C(=O)O/N=C(\N)c1ccc([N+](=O)[O-])cc1,10.2%
17,Cc1ccc(N(CC(=O)N2CCN(c3ccc(F)cc3)CC2)S(=O)(=O)c2c(C)noc2C)cc1,4.59%
18,CCN(Cc1nc2cc(Cl)ccc2c(=O)[nH]1)C(=O)c1cccc(NC(=O)c2cccs2)c1,4.39%
19,CN(Cc1cnccn1)C(=O)C1CCC(=O)N(CCc2ccccc2)C1 (centres unmarked),17.4%
20,O=C(Nc1cc2cc([N+](=O)[O-])ccc2oc1=O)c1cccs1,9.93%
